Measured values published in PubChem BioAssay AID2202238 (Ras Initiative Chemistry Research Team, Frederick National …, 2025).
The other results are listed elsewhere or left out. These are further read-outs of the screen, such as a control signal, another cell line or another target. No call is given for them.

Biological target: GTPase KRas (Homo sapiens) (UniProt P01116)
Test: Fragment capture on engineered cysteines, share of protein labelled (AID 2202238)
Design: protein at 5 µM with 500 µM competing thiol for 1.5 h
Conditions: KRAS G12D cysteine mutants, disulfide tethering, MALDI-TOF labeling, stronger effect = higher value, fragment at 500 µM
[1] = measured here: G75C mutant labeling
[2] = measured here: H94C mutant labeling
[3] = measured here: I36C mutant labeling
[4] = measured here: L120C mutant labeling
[5] = measured here: M67C mutant labeling
[6] = measured here: M72C mutant labeling
[7] = measured here: N86C mutant labeling
[8] = measured here: P121C mutant labeling
[9] = measured here: S122C mutant labeling
[10] = measured here: S136C mutant labeling
[11] = measured here: G60C mutant labeling
[12] = measured here: N26C mutant labeling

Sequence of UniProt P01116 (P01116 whole entry, looked up, the tested form may be a part): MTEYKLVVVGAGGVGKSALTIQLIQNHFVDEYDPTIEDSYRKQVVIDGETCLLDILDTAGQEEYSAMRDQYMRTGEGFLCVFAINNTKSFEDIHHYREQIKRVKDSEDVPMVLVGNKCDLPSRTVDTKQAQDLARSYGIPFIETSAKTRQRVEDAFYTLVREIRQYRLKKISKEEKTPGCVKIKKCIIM

SMILES | percent labeling [1] [%] | percent labeling [2] [%] | percent labeling [3] [%] | percent labeling [4] [%] | percent labeling [5] [%] | percent labeling [6] [%] | percent labeling [7] [%] | percent labeling [8] [%] | percent labeling [9] [%] | percent labeling [10] [%] | percent labeling [11] [%] | percent labeling [12] [%]
Cn1c(=O)oc2cc(NC(=O)CCS)ccc21 | 9.1 | 17.5 | 28.8 | 17.6 | 21.1 | 27.1 | 10.5 | 16.8 | 14.2 | 30.9 |  | 
CC(C(=O)NCCS)N1C(=O)c2ccccc2C1=O (stereo unspecified) | 13.2 | 30.9 | 26.2 | 44.8 | 36.7 | 34.6 | 28.2 | 33.6 | 33.4 | 42.8 | 38.3 | 34.3
O=C(NCCS)c1ccc2cncc(Br)c2n1 | 33.8 | 22.5 | 13.7 | 19.1 | 14.7 | 48.8 | 12.6 | 12.9 | 8.2 | 19.8 | 23.5 | 32.4
O=C(NCCS)c1ccc(F)c2ccsc12 | 13.1 | 23.3 | 8.6 | 10.9 | 7.5 | 46.3 | 6.6 | 12 | 8.4 | 20.1 | 44.2 | 27.5
O=C(CCS)NCC1(c2ccccc2)CCOCC1 | 13.8 | 42.8 | 44.6 | 36.6 | 42.5 | 32.7 | 31.2 | 39 | 41.1 | 65.7 |  | 
O=C(NCCS)c1[nH]c2ccc(Cl)cc2c1Cl | 18.7 | 16.6 | 21.3 | 20.7 | 10.9 | 60.4 | 15.2 | 17 | 5.7 | 18.6 | 52.7 | 35.7
COC(=O)c1cc2n(n1)CCCC2NC(=O)CCS (stereo unspecified) | 10.4 | 29.2 | 34.1 | 28.4 | 38.4 | 22.8 | 37.8 | 32.5 | 30.8 | 49.6 |  | 
O=C(/C=C/c1ccc(O)c(O)c1)NCCS | 17.9 | 34.3 | 26.7 | 32.9 | 33 | 52.4 | 34.6 | 30 | 36.9 | 46.9 |  | 
CN1C[C@@H](C(=O)NCCS)[C@H](c2ccccc2)C1 | 17.6 | 40.1 | 41 | 30.9 | 52.9 | 24 | 26.1 | 31.4 | 26.1 | 64.6 | 44.6 | 41.2
O=C(NCCS)c1[nH]ccc1-c1c(Cl)cccc1Cl | 12.3 | 22.6 | 16.2 | 22.8 | 15 | 68.2 | 15.1 | 15.5 | 9.1 | 15.5 | 47.6 | 27.3
CC(C)C(NC(=O)c1ccc(Cl)cc1)C(=O)NCCS (stereo unspecified) | 18 | 24.2 | 17.3 | 32 | 18.1 | 20.9 | 15.7 | 20.5 | 14.4 | 21.6 | 37.2 | 30.4
Cc1sc(NC(=O)CCS)nc1-c1ccccc1 | 17.4 | 17.6 | 16.6 | 15.8 | 16.3 | 44.2 | 16.5 | 15.1 | 12.1 | 42.6 |  | 
CC(C)c1cccc(N2CC(C(=O)NCCS)CC2=O)c1 (stereo unspecified) | 23.7 | 31.6 | 21.2 | 32.5 | 22.6 | 32.7 | 20.4 | 25.7 | 22.1 | 35.8 | 34.3 | 37.2
N#Cc1cn(CC(F)(F)F)nc1NC(=O)CCS | 17.3 | 35.3 | 37.6 | 34.2 | 36.2 | 24.8 | 30.3 | 32.9 | 34.5 | 45.9 |  | 
O=C(CCS)NCCc1cnc(SC2CCCC2)nc1 | 16.1 | 43.2 | 35.9 | 23.8 | 34.9 | 36.1 | 27 | 31.4 | 23.1 | 48.6 |  | 
O=C(CCS)NCc1cn2c(n1)CCCC2 | 13.3 | 22.4 | 34.8 | 29.6 | 36.3 | 22.3 | 18 | 28 | 26.9 | 48 |  | 
CC(c1ccccc1)c1cc(C(=O)NCCS)n[nH]1 (stereo unspecified) | 17.6 | 17.5 | 13.6 | 27.5 | 21.5 | 59.3 | 16.2 | 15.5 | 13.1 | 31.5 | 23.6 | 28.1
Cc1nc(C(=O)NCCS)nn1-c1n[nH]c(C(F)(F)F)n1 | 12.3 | 27.1 | 17.3 | 55.9 | 20.6 | 19.1 | 27.5 | 34.4 | 36.3 | 30.7 | 22.2 | 37.6
O=C(CCS)Nc1cccc(NC(=O)c2ccc3c(c2)OCO3)c1 | 3.8 | 6.3 | 12.6 | 4.3 | 5.9 | 21.2 | 0 | 2.4 | 3.3 | 12 |  | 
O=C(CCS)NC1(c2noc(-c3cccnc3)n2)CCCCCC1 | 14.8 | 39 | 35.1 | 28.7 | 38.3 | 32.5 | 24.5 | 34.3 | 28.6 | 56.7 |  | 
O=C(COc1cccc(N2CCCC2=O)c1)NCCS | 22.1 | 33.6 | 25.4 | 44.5 | 32.8 | 32.5 | 25.8 | 32.5 | 33.6 | 46.6 | 33.7 | 45.6
Cn1cc(-c2cccc(C(=O)NCCS)c2)cn1 | 15.4 | 28.3 | 9.6 | 31.9 | 24.6 | 58.8 | 24.1 | 18.3 | 18.8 | 39.3 | 32.1 | 55.9
O=C(NCCS)c1oc2ccccc2c1COc1ccccc1 | 17.6 | 19.4 | 14.7 | 14.8 | 8.2 | 47.6 | 11.3 | 12.9 | 5.4 | 12.4 | 36.6 | 21.8
